In PubChem BioAssay AID624296 (National Center for Advancing Translational Sciences (NCATS), 2012):
Screen size: about 350,000 compounds; about 9,900 (2.8%) were called active. The inconclusive results got no clear call from the source; some entries with a clear call stand among them for comparison. Calls follow the shape of the dose curve; as a rule, active = well fitted activation curve with a large enough effect; inconclusive = small, poorly fitted or top-dose-only effect; inactive = no such curve, though single readings can be large or run the other way. Potencies of inconclusive entries are left out as doubtful fits.

Assay: A quantitative high throughput screen for small molecules that induce DNA re-replication in MCF 10a normal breast cells. Also: nearly all actives have a fitted effect of over 50% in size. As to activity, positive = re-replication: % of control where 0% means no effect.
Conditions: MCF 10A DNA re-replication, Hoechst nuclear intensity, 48 h; activity, positive = re-replication: at 46.1 µM (top of the series)
Potency is read from the fitted curve at half-maximal effect; tags tell the direction and shape of the fitted curve.

SMILES | Potency | activity, positive = re-replication
O=C(Cn1nnc(-c2ccccc2NC(=O)c2ccccc2)n1)Nc1ccc2c(c1)OCCO2 | inconclusive [activator, single point] | –
NS(=O)(=O)c1ccc(CCNC(=O)c2cc(=O)[nH]c3ccccc23)cc1 | inconclusive [activator, single point] | –
N#C/C(=C/c1ccco1)C(N)=S | – | inactive: -0.0136%
CCCN=C1N(CC)C[C@@H]2[C@@H]3C(=O)N(Cc4ccccc4)C(=O)[C@@H]3[C@](Cc3ccccc3)(C(=O)OC)N12 | – | inactive: 1.58%
CCN1CCCc2cc(CN(CCN3CCOCC3)C(=S)Nc3cccc(Cl)c3)ccc21 | inconclusive [activator, full curve, poor fit] | –
CCC(=O)Nc1nonc1-c1nc2ccccc2n1Cc1ccccc1 | inconclusive [activator, single point] | –
CS(=O)(=O)c1ccc(NCC2CCCO2)c([N+](=O)[O-])c1 (stereo not given) | – | inactive: 18%
Cc1occc1C(=O)N/N=C/C=C\c1ccccc1[N+](=O)[O-] | – | inactive: 1.27%
Cc1c(C(=O)CN2CCN(c3ccccc3)CC2)c2ccccc2n1C | – | inactive: 9.56%
O=C1c2cccc3cccc(c23)N1Cc1ccc(F)cc1 | inconclusive [activator, single point] | –
CC1CCN(S(=O)(=O)c2ccc(NC(=O)Cc3ccccc3)cc2)CC1 | inconclusive [activator, partial curve, poor fit] | –
CC(=O)Oc1c2occc2cc2ccc(=O)oc12 | inconclusive [activator, single point] | –
O=C(Nc1cccc(Br)c1)c1ccc(CN2CCc3ccccc3C2)cc1 | active: 25.9 µM | –
Cc1ccc(-c2nnc(CSc3nnc(COc4ccccc4)n3-c3ccc(C)cc3)o2)cc1 | active: 23.1 µM | –
NC(=O)C1(N2CCCCC2)CCN(C(=O)c2cccn3c(=O)c4cc(Cl)ccc4nc23)CC1 | inconclusive [activator, partial curve, poor fit] | –
COc1cccc(/C=N/NC(=O)C(=O)Nc2ccccc2OC(F)(F)C(F)F)c1O | inconclusive [activator, single point] | –
COc1ccc(N2CCC(CNC(=O)Nc3cccc(OC)c3)C2)cc1 (stereo not given) | inconclusive [activator, partial curve, poor fit] | –
CCOc1ccc(CCNC(=O)c2cc3sccc3n2C)cc1OCC | – | inactive: 10.3%
COC(=O)Nc1nnc(-c2ccccc2Cl)s1 | – | inactive: -4.09%
Cc1ccsc1CN1CC(=O)N(c2c(C)cccc2C)C1=S | inconclusive [activator, partial curve, poor fit] | –
CS(=O)(=O)c1nc(-c2ccc(Br)cc2)cc(-c2ccccc2)c1C#N | active: 5.8 µM | –
O=C(O)/C=C/C(=O)c1ccc2c(c1)CCc1ccccc1-2 | active: 3.66 µM | –
CC[C@]12CCCN3CCc4c(n(c5ccccc45)[C@@](O)(C(=O)OC)C1)[C@@H]32 | – | inactive: 10.7%
Cc1[nH][nH]c(=O)c1N=Nc1ccc(S(N)(=O)=O)cc1 | inconclusive [activator, partial curve, poor fit] | –
CCOC(=O)c1cc(C(C)(C)C)oc1CNC(=O)c1c(C)oc2c1CCCC2 | active: 20.6 µM | –

SMILES | Potency | activity, positive = re-replication
CC(=O)Cn1cnc2scc(-c3ccc(C)c(C)c3)c2c1=O | – | inactive: 0.0383%
O=C(CN1CCN(Cc2ccc(Cl)cc2)CC1)N1CCc2ccccc21 | – | inactive: -0.498%
CNc1nc(N/N=C/c2cc([N+](=O)[O-])ccc2F)nc(Nc2ccccc2)n1 | inconclusive [activator, single point] | –
CON(C)C(=O)CC1(CN(Cc2ccccc2)C(=O)OC(C)(C)C)CCCCC1 | – | inactive: 23.5%
O=S(=O)(c1ccccc1)n1ccc2ccccc21 | inconclusive [activator, partial curve, poor fit] | –
CCOCCCn1c(=N)c(C(N)=S)cc2c(=O)n3cccc(C)c3nc21 | inconclusive [activator, full curve] | –
O=C(Nc1ccc(F)cc1)C1CCCN1S(=O)(=O)c1cccc2nsnc12 (stereo not given) | – | inactive: 2.05%
O=C(Cc1cccc(NC(=O)C2CCCN(C(=O)C3CC3)C2)c1)Nc1cccc(C(=O)N2CCOCC2)c1 (stereo not given) | inconclusive [activator, single point] | –
Cc1cc(O)ccc1NC(=O)c1ccccc1 | inconclusive [activator, partial curve, poor fit] | –
CC(C)C(OC(=O)c1ccccc1)c1nccc2ccccc12 (stereo not given) | – | inactive: 9.47%
O=C(CN1CCCCC1)Nc1ccccc1Oc1ccccc1 | active: 18.4 µM | –
CC1CCCCN1c1ccc(N)cc1C(N)=O (stereo not given) | – | inactive: -11.2%
CN1CCN(c2ccc(NC(=S)NC(=O)c3cccc4c(Cl)cccc34)cc2)CC1 | inconclusive [activator, partial curve, poor fit] | –
CCC(CC)c1nnc(NC(=O)c2cc([N+](=O)[O-])ccc2N2CCCCC2)s1 | inconclusive [activator, single point] | –
O=C(CN1C(=O)/C(=C2\SC(=S)N(C3CCS(=O)(=O)C3)C2=O)c2ccccc21)Nc1ccccc1 (stereo not given) | – | inactive: -3.56%
COC(=O)c1cc(-c2ccc(OC)c(OC)c2)c2c(=O)[nH]c(=O)n(C)c2n1 | active: 6.51 µM | –
CCC(=O)N(C)CCc1cc2c(c(OC)c1/C=N/NC(=O)c1ccncc1)OCO2 | – | inactive: -7.31%
O=C(NCCc1ccccc1)c1ccc2c(c1)OCO2 | – | inactive: 0.578%
CCOC(=O)c1cc2c(=O)n3ccccc3nc2n(CC2CCCO2)c1=NC(C)=O (stereo not given) | inconclusive [activator, single point] | –
Cc1noc(NS(=O)(=O)c2ccc(N/C=C/C(=O)c3ccc(F)cc3)cc2)c1C | – | inactive: -2.95%
COc1ccc(-c2noc3c2-c2nc(-c4ccccc4)sc2CC3)cc1 | inconclusive [activator, partial curve, poor fit] | –
O=S(=O)(Nc1nc2ccccc2s1)c1ccc(Br)s1 | – | inactive: 4.49%
CCN1CCN(CC(=O)n2c3c(c4ccccc42)CC(C)CC3)CC1 (stereo not given) | – | inactive: 9.83%
CC(C)(C)c1ccc(S(=O)(=O)N2CCN(C(=O)C3CCC3)CC2)cc1 | – | inactive: 18%
NC(CSC(c1ccccc1)(c1ccccc1)c1cccc2ccccc12)C(=O)O (stereo not given) | inconclusive [activator, single point] | –

SMILES | Potency | activity, positive = re-replication
OCCNc1nc(SCc2ccccc2)nc2sc3c(c12)CCC3 | inconclusive [activator, partial curve] | –
O=Cc1c(-c2ccccc2)cc2oc3ccccc3cc1-2 | inconclusive [activator, full curve] | –
COc1ccc(C2CC(c3ccccc3)=NN2c2ccc(S(N)(=O)=O)cc2)cc1OC (stereo not given) | active: 16.4 µM | –
COc1cccc(CNC(=O)CN2C(=O)NC(Cc3ccccc3)(c3ccccc3)C2=O)c1 (stereo not given) | – | inactive: -0.149%
O=C(OCC(=O)N1CCCC1)c1c[nH]c2ccccc12 | – | inactive: -5.66%
COc1ccc(OC)c(/C=N/NC(=O)CNC(=O)c2ccc(S(=O)(=O)N3CCOCC3)cc2)c1 | – | inactive: -0.454%
Cn1c(CN2CCOCC2)nnc1SCC(=O)Nc1ccc([N+](=O)[O-])cc1O | inconclusive [activator, single point] | –
CCOc1ccc(Br)cc1S(=O)(=O)Nc1ccc(NC(=O)c2ccccc2C)cc1 | – | inactive: -2.92%
O=C(CN1C(=O)COc2ccc(S(=O)(=O)N3CCCC3)cc21)NCc1ccccn1 | – | inactive: -0.839%
COc1ccccc1CN1CCCCC1C(=O)O (stereo not given) | – | inactive: 0.148%
Cc1ccc(NC(=O)CSC(C)C(=O)OCC(=O)N2CCN(C(=O)c3ccco3)CC2)cc1 (stereo not given) | inconclusive [activator, partial curve, poor fit] | –
O=C(NC(C(=O)N/N=C/c1ccccn1)c1n[nH]c(=O)c2ccccc12)c1ccccc1 (stereo not given) | inconclusive [activator, single point] | –
CCn1nc(C)cc1C(=O)NC1CCCc2c1cnn2-c1ccc(C)c(C)c1 (stereo not given) | inconclusive [activator, single point] | –
CC1CCC(NC(=O)CSc2nncs2)CC1 (stereo not given) | – | inactive: 20.2%
CCOC(=O)C1CCN(C(=O)CN2C(=O)NC(C)(c3ccc4cc(OC)ccc4c3)C2=O)CC1 (stereo not given) | – | inactive: 13.8%
CCCCCCCCCCn1ccc(=N)cc1 | inconclusive [activator, full curve, poor fit] | –
Cn1c(N)c(Sc2ccc([N+](=O)[O-])cc2)c(=O)n(C)c1=O | – | inactive: 7.07%
Cc1ccc(CN2C(=O)C(C)Nc3ncnc(N4CCN(c5ccccn5)CC4)c32)cc1 (stereo not given) | inconclusive [activator, single point] | –
Cc1cccc(OCCOC(=O)c2c(-c3ccccc3)noc2C)c1 | active: 18.4 µM | –
COc1cccc(CNC(=O)CCCn2c(=S)[nH]c3cc4c(cc3c2=O)OCO4)c1 | – | inactive: 13%
O=C(CN1CCc2ccccc2C1)Nc1cccc(S(=O)(=O)N2CCCC2)c1 | inconclusive [activator, full curve, poor fit] | –
Cc1cc(C(=O)CSc2nnc(-c3ccco3)o2)c(C)n1CC1COc2ccccc2O1 (stereo not given) | inconclusive [activator, partial curve, poor fit] | –
COc1cc(C(=O)NC(=S)Nc2cccc3nc(C)ccc23)cc(OC)c1OC | inconclusive [activator, single point] | –
Cc1ccccc1C(=O)Nc1ccc(S(=O)(=O)N2CCN(C)CC2)cc1 | – | inactive: 0.866%
CC(OC(=O)c1ccc2ccccc2c1)C(=O)N(C)Cc1ccccc1 (stereo not given) | inconclusive [activator, partial curve, poor fit] | –
